# Experimental data: the supplement of paper PMC4967469
# Compound: FC(F)c1nc2ccccc2n1-c1nc(N2CCOCC2)nc(N2CCOCC2)n1 [ZSTK474]
# Assay: Viability of human cancer cell lines after 72 h of drug (GDSC screen)
# Description: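 Human cancer cell lines in 384-well plates, medium with 10% serum, drug for 72 h over a 256-fold dose range (nine 2-fold or five 4-fold steps up to the top dose). Adherent lines were fixed and stained with the nucleic acid dye Syto60, suspension lines read with resazurin; signal relative to control wells, capped at 0 and 100%. One two-parameter sigmoid per drug and line, fitted in a mixed model over all curves with the slope shared within a line.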
Cell Line,AUC,IC50 [nM]
"MLMA (hairy cell leukaemia, semi-adherent, top dose 5.12 µM)",0.249,60.5
"MMAC-SF (melanoma, adherent, top dose 5.12 µM)",0.729,1480
"MN-60 (B-cell leukaemia, suspension, top dose 5.12 µM)",0.503,326
"MOG-G-CCM (glioma, adherent, top dose 5.12 µM)",0.965,> 5120
"MOLM-13 (acute myeloid leukaemia, suspension, top dose 5.12 µM)",0.33,111
"MOLP-8 (myeloma, suspension, top dose 5.12 µM)",0.286,81.4
"MOLT-4 (lymphoblastic leukaemia, suspension, top dose 5.12 µM)",0.374,154
"MOLT-13 (T-cell lymphoblastic leukaemia, suspension, top dose 5.12 µM)",0.897,5030
"MONO-MAC-6 (acute myeloid leukaemia, suspension, top dose 5.12 µM)",0.332,106
"MPP-89 (mesothelioma, adherent, top dose 5.12 µM)",0.936,> 5120
"MRK-nu-1 (breast, suspension, top dose 5.12 µM)",0.94,> 5120
"MS751 (cervix, adherent, top dose 5.12 µM)",0.978,> 5120
"MS-1 (small cell lung carcinoma, suspension, top dose 5.12 µM)",0.772,1770
"MSTO-211H (mesothelioma, adherent, top dose 5.12 µM)",0.977,> 5120
"MV-4-11 (leukaemia, suspension, top dose 5.12 µM)",0.429,212
"MY-M12 (leukaemia, suspension, top dose 5.12 µM)",0.488,296
"MZ1-PC (pancreas, adherent, top dose 5.12 µM)",0.58,560
"MZ2-MEL (melanoma, adherent, top dose 5.12 µM)",0.693,1230
"MZ7-mel (melanoma, adherent, top dose 5.12 µM)",0.635,767
"Mewo (melanoma, adherent, top dose 5.12 µM)",0.94,> 5120
"Mo-T (hairy cell leukaemia, suspension, top dose 5.12 µM)",0.562,473
"NALM-6 (B-cell leukaemia, suspension, top dose 5.12 µM)",0.159,37.2
"NAMALWA (Burkitt lymphoma, suspension, top dose 5.12 µM)",0.455,246
"NB5 (neuroblastoma, adherent, top dose 5.12 µM)",0.661,900
"NB6 (neuroblastoma, adherent, top dose 5.12 µM)",0.802,3210

Cell Line,AUC,IC50 [nM]
"NB7 (neuroblastoma, adherent, top dose 5.12 µM)",0.818,3060
"NB10 (neuroblastoma, adherent, top dose 5.12 µM)",0.932,> 5120
"NB12 (neuroblastoma, adherent, top dose 5.12 µM)",0.785,3060
"NB13 (neuroblastoma, adherent, top dose 5.12 µM)",0.979,> 5120
"NB14 (neuroblastoma, adherent, top dose 5.12 µM)",0.954,> 5120
"NB17 (neuroblastoma, adherent, top dose 5.12 µM)",0.947,> 5120
"NB69 (neuroblastoma, adherent, top dose 5.12 µM)",0.563,466
"NB(TU)1-10 (neuroblastoma, adherent, top dose 5.12 µM)",0.974,> 5120
"NB-4 (acute myeloid leukaemia, suspension, top dose 5.12 µM)",0.556,441
"NCC021 (kidney, adherent, top dose 5.12 µM)",0.625,753
"NCI-H23 (lung adenocarcinoma, adherent, top dose 5.12 µM)",0.928,> 5120
"NCI-H28 (mesothelioma, adherent, top dose 5.12 µM)",0.961,> 5120
"NCI-H64 (small cell lung carcinoma, suspension, top dose 5.12 µM)",0.434,221
"NCI-H69 (small cell lung carcinoma, suspension, top dose 5.12 µM)",0.709,1340
"NCI-H82 (small cell lung carcinoma, suspension, top dose 5.12 µM)",0.937,> 5120
"NCI-H187 (small cell lung carcinoma, suspension, top dose 5.12 µM)",0.921,> 5120
"NCI-H196 (small cell lung carcinoma, adherent, top dose 5.12 µM)",0.935,> 5120
"NCI-H209 (small cell lung carcinoma, suspension, top dose 5.12 µM)",0.935,> 5120
"NCI-H211 (small cell lung carcinoma, adherent, top dose 5.12 µM)",0.748,1600
"NCI-H226 (lung squamous cell carcinoma, adherent, top dose 5.12 µM)",0.86,4670
"NCI-H292 (lung adenocarcinoma, adherent, top dose 5.12 µM)",0.722,1590
"NCI-H322M (lung adenocarcinoma, suspension, top dose 5.12 µM)",0.819,3850
"NCI-H345 (small cell lung carcinoma, suspension, top dose 5.12 µM)",0.99,> 5120
"NCI-H358 (lung adenocarcinoma, adherent, top dose 5.12 µM)",0.703,1280
"NCI-H441 (lung adenocarcinoma, adherent, top dose 5.12 µM)",0.972,> 5120

Cell Line,AUC,IC50 [nM]
"NCI-H446 (small cell lung carcinoma, semi-adherent, top dose 5.12 µM)",0.723,1440
"NCI-H460 (large cell lung carcinoma, adherent, top dose 5.12 µM)",0.982,> 5120
"NCI-H510A (small cell lung carcinoma, semi-adherent, top dose 5.12 µM)",0.972,> 5120
"NCI-H520 (lung squamous cell carcinoma, adherent, top dose 5.12 µM)",0.388,155
"NCI-H522 (lung adenocarcinoma, adherent, top dose 5.12 µM)",0.942,> 5120
"NCI-H524 (small cell lung carcinoma, suspension, top dose 5.12 µM)",0.838,2940
"NCI-H526 (small cell lung carcinoma, suspension, top dose 5.12 µM)",0.792,2200
"NCI-H596 (lung adenocarcinoma, adherent, top dose 5.12 µM)",0.654,973
"NCI-H630 (large intestine, adherent, top dose 5.12 µM)",0.867,> 5120
"NCI-H647 (non-small cell lung carcinoma, adherent, top dose 5.12 µM)",0.601,614
"NCI-H650 (lung adenocarcinoma, adherent, top dose 5.12 µM)",0.72,1440
"NCI-H661 (large cell lung carcinoma, adherent, top dose 5.12 µM)",0.861,> 5120
"NCI-H716 (large intestine, suspension, top dose 5.12 µM)",0.798,3200
"NCI-H720 (lung carcinoid, suspension, top dose 5.12 µM)",0.99,> 5120
"NCI-H727 (lung carcinoid, adherent, top dose 5.12 µM)",0.87,> 5120
"NCI-H747 (large intestine, adherent, top dose 5.12 µM)",0.458,239
"NCI-H748 (small cell lung carcinoma, suspension, top dose 5.12 µM)",0.892,> 5120
"NCI-H810 (large cell lung carcinoma, adherent, top dose 5.12 µM)",0.837,3220
"NCI-H838 (lung adenocarcinoma, adherent, top dose 5.12 µM)",0.976,> 5120
"NCI-H841 (small cell lung carcinoma, adherent, top dose 5.12 µM)",0.861,4370
"NCI-H847 (small cell lung carcinoma, adherent, top dose 5.12 µM)",0.975,> 5120
"NCI-H1048 (small cell lung carcinoma, adherent, top dose 5.12 µM)",0.426,205
"NCI-H1092 (small cell lung carcinoma, suspension, top dose 5.12 µM)",0.874,5050
"NCI-H1155 (large cell lung carcinoma, suspension, top dose 5.12 µM)",0.938,> 5120

# Lines with a small IC50 respond at low doses; a fit beyond the top or the lowest dose is shown as a bound at that dose. The AUC spans the tested range (256-fold, ending at the top dose) of the same fit; values near 1 show little effect.
